# The list shows a part of the results.
# Assays:
# Assay in all cases: glycan array binding signal (z-score within array); higher = stronger binding
# Conditions in all cases: glycan notation: IUPAC condensed, linker removed
# [1] = biological target: Neu5Ac(a2-6)Gal(b1-4)GlcNAc(b1-3)Gal(b1-4)GlcNAc(b1-3)GalNAc
# How it was run: (§1)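 The binding signal is a Z-score computed within each array and averaged over linkers. Arrays of the same protein sequence at different concentrations or buffers were also averaged together. Data originate from 3228 arrays in the Consortium for Functional Glycomics database, kept only where the protein sequence was available.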
# [2] = biological target: Neu5Ac(a2-6)Gal(b1-4)GlcNAc(b1-3)Gal(b1-4)GlcNAc(b1-3)[Neu5Ac(a2-6)Gal(b1-4)GlcNAc(b1-3)Gal(b1-4)GlcNAc(b1-6)]GalNAc
# How it was run: as §1
# [3] = biological target: Neu5Ac(a2-6)Gal(b1-4)GlcNAc(b1-3)Gal(b1-4)GlcNAc(b1-6)[Gal(b1-3)]GalNAc
# How it was run: as §1
# [4] = biological target: Neu5Ac(a2-6)Gal(b1-4)GlcNAc(b1-3)Gal(b1-4)[Fuc(a1-3)]GlcNAc(b1-3)Gal(b1-4)[Fuc(a1-3)]GlcNAc
# How it was run: as §1
# [5] = biological target: Neu5Ac(a2-6)Gal(b1-4)GlcNAc(b1-3)GalNAc
# How it was run: as §1
# [6] = biological target: Neu5Ac(a2-6)Gal(b1-4)GlcNAc(b1-3)[Neu5Ac(a2-6)Gal(b1-4)GlcNAc(b1-6)]GalNAc
# How it was run: as §1
# [7] = biological target: Neu5Ac(a2-6)Gal(b1-4)GlcNAc(b1-6)GalNAc
# How it was run: as §1
# [8] = biological target: Neu5Ac(a2-6)Gal(b1-4)GlcNAc(b1-6)[Gal(b1-3)GlcNAc(b1-3)]Gal(b1-4)Glc
# How it was run: as §1
# [9] = biological target: Neu5Ac(a2-6)Gal(b1-4)GlcNAc(b1-6)[Gal(b1-3)]GalNAc
# How it was run: as §1
# [10] = biological target: Neu5Ac(a2-6)Gal(b1-4)GlcNAc6S
# How it was run: as §1
# Neu5Ac(a2-6)GalNAc = biological target: Neu5Ac(a2-6)GalNAc
# How it was run: as §1
# [11] = biological target: Neu5Ac(a2-6)GalNAc(b1-4)GlcNAc
# How it was run: as §1
# [12] = biological target: Neu5Ac(a2-6)GalNAc(b1-4)GlcNAc6S
# How it was run: as §1
# [13] = biological target: Neu5Ac(a2-6)GlcNAc(b1-4)GlcNAc
# How it was run: as §1
# [14] = biological target: Neu5Ac(a2-6)GlcNAc(b1-4)GlcNAc(b1-4)GlcNAc
# How it was run: as §1
# Neu5Ac(a2-8)Neu5Ac = biological target: Neu5Ac(a2-8)Neu5Ac
# How it was run: as §1
# [15] = biological target: Neu5Ac(a2-8)Neu5Ac(a2-3)Gal(b1-3)GalNAc(b1-4)[Neu5Ac(a2-3)]Gal(b1-4)Glc
# How it was run: as §1
# [16] = biological target: Neu5Ac(a2-8)Neu5Ac(a2-3)Gal(b1-3)GalNAc(b1-4)[Neu5Ac(a2-8)Neu5Ac(a2-3)]Gal(b1-4)Glc
# How it was run: as §1
# [17] = biological target: Neu5Ac(a2-8)Neu5Ac(a2-3)Gal(b1-4)Glc
# How it was run: as §1
# [18] = biological target: Neu5Ac(a2-8)Neu5Ac(a2-3)Gal(b1-4)GlcNAc
# How it was run: as §1
# [19] = biological target: Neu5Ac(a2-8)Neu5Ac(a2-3)[Gal(b1-3)GalNAc(b1-4)]Gal(b1-4)Glc
# How it was run: as §1
# [20] = biological target: Neu5Ac(a2-8)Neu5Ac(a2-3)[GalNAc(b1-4)]Gal(b1-4)Glc
# How it was run: as §1
# [21] = biological target: Neu5Ac(a2-8)Neu5Ac(a2-8)Neu5Ac
# How it was run: as §1
# [22] = biological target: Neu5Ac(a2-8)Neu5Ac(a2-8)Neu5Ac(a2-3)Gal(b1-4)Glc
# How it was run: as §1
# [23] = biological target: Neu5Ac(a2-8)Neu5Ac(a2-8)Neu5Ac(a2-3)[Gal(b1-3)GalNAc(b1-4)]Gal(b1-4)Glc
# How it was run: as §1
# [24] = biological target: Neu5Ac(a2-8)Neu5Ac(a2-8)Neu5Ac(a2-3)[GalNAc(b1-4)]Gal(b1-4)Glc
# How it was run: as §1
# [25] = biological target: Neu5Ac(a2-8)Neu5Ac(a2-8)Neu5Ac(a2-8)Neu5Ac(a2-3)[GalNAc(b1-4)]Gal(b1-4)Glc
# How it was run: as §1
# [26] = biological target: Neu5Ac(a2-8)Neu5Gc(a2-3)Gal(b1-4)GlcNAc
# How it was run: as §1
# [27] = biological target: Neu5Ac(b2-6)Gal(b1-4)GlcNAc
# How it was run: as §1
# Neu5Ac(b2-6)GalNAc = biological target: Neu5Ac(b2-6)GalNAc
# How it was run: as §1
# [28] = biological target: Neu5Ac9Ac(a2-3)Gal(b1-3)GlcNAc
# How it was run: as §1
# [29] = biological target: Neu5Ac9Ac(a2-3)Gal(b1-4)GlcNAc
# How it was run: as §1
# [30] = biological target: Neu5Ac9Ac(a2-6)Gal(b1-4)GlcNAc
# How it was run: as §1
# [31] = biological target: Neu5Gc(a2-3)Gal(b1-3)GlcNAc
# How it was run: as §1
# [32] = biological target: Neu5Gc(a2-3)Gal(b1-3)[Fuc(a1-4)]GlcNAc
# How it was run: as §1
# Neu5Gc(a2-3)Gal(b1-4)Glc = biological target: Neu5Gc(a2-3)Gal(b1-4)Glc
# How it was run: as §1
# [33] = biological target: Neu5Gc(a2-3)Gal(b1-4)GlcNAc
# How it was run: as §1
# [34] = biological target: Neu5Gc(a2-3)Gal(b1-4)GlcNAc(b1-3)Gal(b1-4)GlcNAc(b1-2)Man(a1-3)[Neu5Gc(a2-3)Gal(b1-4)GlcNAc(b1-3)Gal(b1-4)GlcNAc(b1-2)Man(a1-6)]Man(b1-4)GlcNAc(b1-4)GlcNAc
# How it was run: as §1
# [35] = biological target: Neu5Gc(a2-3)Gal(b1-4)[Fuc(a1-3)]GlcNAc
# How it was run: as §1
# [36] = biological target: Neu5Gc(a2-6)Gal(b1-4)GlcNAc
# How it was run: as §1
# Neu5Gc(a2-6)GalNAc = biological target: Neu5Gc(a2-6)GalNAc
# How it was run: as §1
# [37] = biological target: Neu5Gc(a2-8)Neu5Ac(a2-3)Gal(b1-4)GlcNAc
# How it was run: as §1
# [38] = biological target: Neu5Gc(a2-8)Neu5Gc(a2-3)Gal(b1-4)GlcNAc
# How it was run: as §1
# [39] = biological target: Neu5Gc(a2-8)Neu5Gc(a2-3)Gal(b1-4)GlcNAc(b1-3)Gal(b1-4)GlcNAc
# How it was run: as §1
# [40] = biological target: Neu5Gc(a2-8)Neu5Gc(a2-6)Gal(b1-4)GlcNAc
# How it was run: as §1
# [41] = biological target: Neu5Gc(b2-6)Gal(b1-4)GlcNAc
# How it was run: as §1
binder,measurement,setting,value
SP16665A-bot-344-23-344 (Bacteroides ovatus) (protein) SDNEFPDFDYQTVYFANQYGLRTIELGESEFVDNTLDNQHKMVIKAAWGGGYTNRNNVVINFKVDESLCDNLYFKDTDQPLVPMPASYYTLASDRIAIPKGQIMAGVEVQLTDDFFADEKSISENYVIPLLMTNVQGADSILQGKPVVENPVLTNAGDWSILPQNFVLYAVKYVNPWHGEYLRRGIDHATVAGTSKDIIRHEQFVENDEVVNISTKSMKDNLLTLKTKDESGKDISYTVRLSFAEDGSCTVHSGSQNVVVSGSGKFVSKGEKNSLGGKDRNAIYLDYTVNLTDNNIQLATKDTLVLRTRNVYGGKSLEVVRK,glycan array binding signal (z-score),[1],-0.372
same,glycan array binding signal (z-score),[2],-0.295
same,glycan array binding signal (z-score),[3],-0.196
same,glycan array binding signal (z-score),[4],0.107
same,glycan array binding signal (z-score),[5],-0.619
same,glycan array binding signal (z-score),[6],-0.18
same,glycan array binding signal (z-score),[7],-0.237
same,glycan array binding signal (z-score),[8],-0.565
same,glycan array binding signal (z-score),[9],-0.424
same,glycan array binding signal (z-score),[10],-0.194
same,glycan array binding signal (z-score),Neu5Ac(a2-6)GalNAc,-0.36
same,glycan array binding signal (z-score),[11],-0.736
same,glycan array binding signal (z-score),[12],-0.452
same,glycan array binding signal (z-score),[13],-0.508
same,glycan array binding signal (z-score),[14],-0.453
same,glycan array binding signal (z-score),Neu5Ac(a2-8)Neu5Ac,-0.247
same,glycan array binding signal (z-score),[15],-0.497
same,glycan array binding signal (z-score),[16],0.03
same,glycan array binding signal (z-score),[17],-0.384
same,glycan array binding signal (z-score),[18],-0.345
same,glycan array binding signal (z-score),[19],-0.083
same,glycan array binding signal (z-score),[20],-0.466
same,glycan array binding signal (z-score),[21],-0.123
same,glycan array binding signal (z-score),[22],-0.509
same,glycan array binding signal (z-score),[23],-0.048
same,glycan array binding signal (z-score),[24],-0.3
same,glycan array binding signal (z-score),[25],-0.366
same,glycan array binding signal (z-score),[26],-0.21
same,glycan array binding signal (z-score),[27],-0.305
same,glycan array binding signal (z-score),Neu5Ac(b2-6)GalNAc,-0.463
same,glycan array binding signal (z-score),[28],-0.51
same,glycan array binding signal (z-score),[29],-0.391
same,glycan array binding signal (z-score),[30],-0.311
same,glycan array binding signal (z-score),[31],-0.106
same,glycan array binding signal (z-score),[32],-0.412
same,glycan array binding signal (z-score),Neu5Gc(a2-3)Gal(b1-4)Glc,-0.1
same,glycan array binding signal (z-score),[33],-0.188
same,glycan array binding signal (z-score),[34],0.181
same,glycan array binding signal (z-score),[35],0.629
same,glycan array binding signal (z-score),[36],-0.371
same,glycan array binding signal (z-score),Neu5Gc(a2-6)GalNAc,-0.285
same,glycan array binding signal (z-score),[37],0.014
same,glycan array binding signal (z-score),[38],-0.427
same,glycan array binding signal (z-score),[39],-0.077
same,glycan array binding signal (z-score),[40],-0.088
same,glycan array binding signal (z-score),[41],0.645

# Source: the supplement of paper PMC8728848
